Some of the results follow.
Test system: PfAP2-HC AP2 domain (GST-tagged)
Assay: gcPBM binding intensity (ln(normalized median fluorescence intensity)); higher = stronger DNA binding
Outline: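 Plasmodium falciparum DNA-binding domains carrying a GST tag were expressed in E. coli and applied for 1 h, at about 25 μg on average, to an Agilent 4 × 180k array. The array held primer-extended double-stranded 36-bp intergenic genomic probes together with negative controls, and binding took place in 1× PBS with 1% milk, 0.2 mg/ml BSA, 0.5% salmon testes DNA and 0.03% Triton X-100. An Alexa488 anti-GST antibody detected bound protein, and the array was scanned at 488 nm. Binding intensity is taken as the highest Masliner-normalised natural-log median intensity across replicate spots of either probe orientation.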

| Sequence | gcPBM binding intensity (ln) |
| --- | --- |
| AGGCTATAATACCATACACACATTTATAAAATAACA [CACACA_site6990] | 9.76 |
| CTTTTGTATATTATATGTACACACAATAAGTTAATA [XGTACX_site1684] | 9.7 |
| ACATATATTTATATATGTACATATGATATATACATA [XGTACX_site6122] | 9.58 |
| TACATATAAACAATAACACACACCTAGGTACATGGA [CACACA_site8178] | 9.98 |
| AATTAACAAAAACACACACACACACCCACAAAAAAA [CACACA_site517] | 11.4 |
| TTTTTGTAAACCTACTTCATAATTATTTATATCTAT [XGTACX_negctrl_site599] | 9.72 |
| AATACAAATATATATGCACACACATATACATACATA [CACACA_site8677] | 10.5 |
| TACATTTTAATATAAGCATGCCTTTAGTTTTTTTCT [TGCATGCA_site829] | 9.76 |
| CAATTTATTATATATGTGCACATATAATTTTACAAA | 9.57 |
| TAATTATTTTTATTGTTGCACTAGTAAAATTTTAAG [GTGCAC_site9946] | 9.42 |
| TTTCTTTAACAAGTTAAACACACATACATATATACA [CACACA_site8810] | 9.65 |
| ATCATTTCTATATAAGCACACACGTGGAATTTTTTT [CACACA_site2786] | 9.99 |
| TTACTTATATGCATAGTGCAAATTTGGTAAATATCT | 9.58 |
| CACATACAGATATATACACACAAATATAAATACACA [CACACA_site6512] | 10.3 |
| AATAAATATAAAAATGCACACACACTAATAAAAAAA [CACACA_site8201] | 11.4 |
| AAAATAAATATATTATCCACGTTGTATATATATATA [XGTACX_negctrl_site136] | 9.72 |
| TTTTTTTTTTCTTTTTTTTATTATATTAACGGAATT [GTGCAC_negctrl_site104] | 9.35 |
| AAAAAGAAATACAAATAATATATATATATATATATT [TGCATGCA_negctrl_site458] | 9.57 |
| CATAAAAATTGAAGCACACACACAAAAGAAATACAA [CACACA_site1112] | 10.7 |
| AATAAACAAATAAATAAACACACAATATATGTATAT [CACACA_site9268] | 10 |
| ATACATAAATTTATACGTACATATATAGATACATAA [XGTACX_site675] | 9.77 |
| TTACATGCTAAAATTTGTACATATATGATAAATATT [XGTACX_site2648] | 9.61 |

| Sequence | gcPBM binding intensity (ln) |
| --- | --- |
| TTGTTTTCACCAAATACACACAAGCATACACCCCAT [CACACA_site2717] | 10.1 |
| AAGTAAAATAAGTATACACACATAAATATGTAAATA [CACACA_site6467] | 9.99 |
| TTTTATTTTCGATGATGTACATTAAATTATACAGTA [XGTACX_site6053] | 9.5 |
| AAATATTACTCCTCAAGTACACATAAAAAAAAAATA [XGTACX_site2085] | 9.65 |
| TATTTTTTTTGATATTGTACTTTTTTATTATTTTTT [XGTACX_site566] | 9.74 |
| TAAAAATTTAAGAAAACATGCATCTAACATATATAT [TGCATGCA_site342] | 9.58 |
| AATATACAAAATAAATAAAATATATATATATATATA [CACACA_negctrl_site216] | 9.95 |
| AAGTAATCATCATAAAGTACTAAATTATATTGTCAA [XGTACX_site5841] | 9.51 |
| GAAAATATATTTAAGATGCACTTTAAAAATGTACTT | 9.46 |
| AAATTATATATAAAATGTACATATGTAGGTAATTTT [XGTACX_site5047] | 10.1 |
| ACATTCTGATGGTGATTATTAATTATTACAAAAATT [CACACA_negctrl_site283] | 9.44 |
| GTATATATGTATGTATGTACTTATAAAGTTGCATAT [XGTACX_site5616] | 9.63 |
| TCTACATCTGTATATAAACACACAACAAAAATGCTT [CACACA_site9271] | 9.63 |
| ACTTTATTATATATTTGTACATATATTTTTAATTTC [XGTACX_site4144] | 9.96 |
| TATTTATTGTGATACTTATATTATTTCATGATTAAT [CACACA_negctrl_site738] | 9.72 |
| TATATATTTCAATAATGTACATATAATATATATATT [XGTACX_site4124] | 9.67 |
| AATGTGTAGACACGCACACACAAAAAAATATTTATA [CACACA_site7384] | 10.2 |
| ATATTATAAATTATAGGTACACACAAAAAAAAAAAG [XGTACX_site2637] | 10 |
| AAGTTTTCTTAAAGATGTACTTTTTAAAAATAAAAT [XGTACX_site3063] | 9.24 |
| ATATCAAGCTATGAGAAAAAAAAAAAGAAAAAAAAA [CACACA_negctrl_site1370] | 9.36 |
| AAATATATTGCATATATACACACGTATATATATTAA [CACACA_site2759] | 9.66 |
| TGATTCTTTTCAAAGTGTACAGTAATTTTTATGTAA [XGTACX_site8452] | 9.48 |

| Sequence | gcPBM binding intensity (ln) |
| --- | --- |
| TATATAATTCAAAAATGTACATGAAATATAAATATT [XGTACX_site7984] | 9.71 |
| TCTTCAAAGACACAATCACACACATACATAAATATA [CACACA_site8128] | 10 |
| AATACGTTTCAAAAATGTACACATATATCATAAATA [XGTACX_site8962] | 9.55 |
| ATCAAAAATGTTATATATATATATATATATATATAT [TGCATGCA_negctrl_site71] | 9.47 |
| TTAAATAAAAAAATAACACACATATAAATCTATATG [CACACA_site7482] | 9.75 |
| GCCATTAATTTATACACACACATTATAACTTTTTAT [CACACA_site6492] | 10.2 |
| TATCAGCAATGGAAAACATGCAAAAAATTAATATAT [TGCATGCA_site623] | 9.48 |
| AGTAATAAATTTTATACATGCATAAAAAAAAAAAAA [TGCATGCA_site661] | 9.73 |
| TATAGCTTTCATTATACACACATCAAAAATTTAAAT [CACACA_site227] | 9.66 |
| TTAAAAATCATTTAAGAACACACAAATATTTCCATT [CACACA_site8418] | 9.63 |
| AACTTGTATTTATACACACACACACTAGCTTTTTTT [CACACA_site5132] | 10.4 |
| AGAATTAAAAACAGTTGTACAAAAAGTTGTATAAAT [XGTACX_site411] | 10 |
| TATATTTATTTTTAATGTACATATTTAAGAAAACTA [XGTACX_site4920] | 9.39 |
| GACTCATTAAGGATTATTCCTAATGATCAAAAGAAC [CACACA_negctrl_site515] | 9.38 |
| TTTCTTTGTATTTATAGTACATATTTTAATAACTGC [XGTACX_site6673] | 9.6 |
| ATAATATTTTATTATACATGCAAATTATTATATATA [TGCATGCA_site40] | 9.47 |
| TAAAAATTAAAAAGGGTGCAAAAAAAAAAAAAAAAA [GTGCAC_site9733] | 9.24 |
| TATTAATTATAAGATGCATGTGCAAAAATATGTTCC [TGCATGCA_site51] | 9.75 |
| GATTAAAATCAAAGGTGTACGCACAAATAAGTCCCA [XGTACX_site4360] | 9.82 |
| CACCCTTTGTTTTAGAGTACATATGTATATACGTAA [XGTACX_site7964] | 9.76 |
| TATATATATTTATGTACACACATATATACCTTTCAT [CACACA_site5479] | 9.94 |
| TTTCCGGTAATATGGAGATATATGTGGGTTTTTTTT [GTGCAC_negctrl_site374] | 9.66 |

| Sequence | gcPBM binding intensity (ln) |
| --- | --- |
| ACAAAATTTACAAAATGTACAAAGTATGTGTTTTAT [XGTACX_site6462] | 9.8 |
| ATATTTTTTTTTTTCACACACATTTATATTGTATTA [CACACA_site5695] | 10.2 |
| AGAAAAAAGAGGGATACACACAAACATATATTTATA [CACACA_site7122] | 10.5 |
| TATTAAAATATTCTCACACACCAAAATATGTATGTA [CACACA_site6565] | 9.73 |
| AAAAAAAAAAAAAAAAAAAGAAAAGAAAATAGGGTT [GTGCAC_negctrl_site421] | 9.45 |
| ATTATATTAATTTATAGTACAATATTTATATATATG [XGTACX_site4668] | 9.57 |
| TATATATTACTTTTTTGTACGAATTTTACAACTACG [XGTACX_site3473] | 9.78 |
| AATATACATAACAAGGTGCAAAAAATATTGTTCATA [GTGCAC_site9499] | 9.85 |
| TTATTATTATGATTATTATGATGATTATACAACTGT [TGCATGCA_negctrl_site241] | 9.57 |
| AGGAGGAACAAACAAAACAATAAAAATTATAATAAA [GTGCAC_negctrl_site206] | 9.73 |
| AAAAGACATTTTTTTTTATAAATACACACGTACGTG [TGCATGCA_negctrl_site281] | 9.68 |
| TTCAAAGACACAATCACACACATACATAAATATACA [CACACA_site687] | 10.8 |
| TTCCAAGAAATAATAGTGCATTATTCATTTTAATAA | 9.25 |
| GTAATCCACAAACACACACACATACACATATATATA [CACACA_site2728] | 10.6 |
| ATCATTTTTAATAAATGTACAAGTTTTAAAAAAAAA [XGTACX_site7340] | 9.47 |
| AAAAAAACAACATGCACACGCACACCCAAAAAAAGC [CACACA_site72] | 10.7 |
| ATAATATTTTAGAGCAGTACACTTTTATATTTATTG [XGTACX_site5728] | 9.67 |
| AGAGGAAAAATAAAAGGAAAAAAGAAAATAATATTG [CACACA_negctrl_site852] | 9.37 |
| ATATATTACAATATATGTACTTAATTTGCTTAAATA [XGTACX_site7912] | 9.52 |
| AAAATAAATATTACATGTACATATATATATATATAT [XGTACX_site8492] | 9.91 |
| TAAAACAGAATGAGGAGTACAAAAAGAAGAAAAGGG [XGTACX_site1246] | 9.83 |
| TACACATGTTTAAAATGTACGTTTTATAACACACAC [XGTACX_site8229] | 9.93 |

Reference: the supplement of paper PMC11417369
